According to PubChem BioAssay AID624417 (National Center for Advancing Translational Sciences (NCATS), 2012):
Out of some 410,000 compounds screened, about 6,400 (1.6%) were called active. Inconclusive results, whose numbers are uncertain, are shown with a selection of clear calls. Calls follow the shape of the dose curve; as a rule, active = well fitted inhibition curve with a large enough effect; inconclusive = small, poorly fitted or top-dose-only effect; inactive = no such curve, though single readings can be large or run the other way. Potencies of inconclusive entries are doubtful fits and often do not repeat.

target: Glucagon-like peptide 1 receptor (Homo sapiens) (UniProt P43220); assay: qHTS of GLP-1 Receptor Inverse Agonists (Inhibition Mode); details: HEK293 GLP-1R CRE-luciferase, luminescence, 24 h, GLP-1R form is constitutively active; activity change, negative = inhibition: at 38.3 µM (top of the series) unless noted; also: nearly all actives have a fitted effect of over 55% in size
Chain of UniProt P43220 (P43220 whole entry, looked up): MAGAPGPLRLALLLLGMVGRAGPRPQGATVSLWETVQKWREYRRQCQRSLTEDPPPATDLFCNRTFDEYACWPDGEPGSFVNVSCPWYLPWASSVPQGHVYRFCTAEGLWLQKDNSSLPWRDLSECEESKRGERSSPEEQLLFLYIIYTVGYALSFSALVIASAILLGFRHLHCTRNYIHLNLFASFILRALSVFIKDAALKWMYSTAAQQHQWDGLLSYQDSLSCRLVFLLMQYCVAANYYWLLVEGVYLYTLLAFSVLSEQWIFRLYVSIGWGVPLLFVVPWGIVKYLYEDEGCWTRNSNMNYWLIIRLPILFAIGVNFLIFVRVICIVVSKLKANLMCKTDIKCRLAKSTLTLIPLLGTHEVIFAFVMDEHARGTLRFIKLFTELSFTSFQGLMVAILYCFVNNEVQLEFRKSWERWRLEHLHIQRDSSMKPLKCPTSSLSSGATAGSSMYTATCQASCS
Method in brief: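 Seeding at 200 cells/uL, 12 h culture, 24 hr compound treatment, then luciferase reagent and a luminescence read; cells are HEK293 stably expressing a constitutively active GLP-1R plus cAMP-responsive luciferase.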
% is scaled to controls: 0 for no effect and ±100 for the full control effect; potency is read from the fitted curve at half-maximal effect; tags tell the direction and shape of the fitted curve.

Potency, inconclusive:
CC(=O)c1ccc2c(c1)N(Cc1ccc3ccccc3c1)C(=O)C(C)S2 (stereo unspecified) 8.91 µM [inhibitor, partial curve, poor fit]
OC(COc1ccc2ccccc2c1Br)Cn1ccnc1 (stereo unspecified) 11.2 µM [inhibitor, partial curve, poor fit]
CC(C)C[C@@H](CSc1ccccc1)N1CCN(CC(C)C)CCC1=O 11.2 µM [inhibitor, partial curve, poor fit]
Cc1ccc(OCC(=O)Nc2ccc(NC(=O)c3cccs3)cc2)c(C)c1 7.08 µM [inhibitor, partial curve, poor fit]
COc1ccc(CNCC(O)COc2ccc(C(C)(C)c3ccccc3)cc2)cc1 (stereo unspecified) 12.6 µM [inhibitor, partial curve, poor fit]
O=C(Nc1ccc(Cl)c(Cl)c1)Nc1ccc(N2CCCC2)c(S(=O)(=O)Nc2ccccc2Cl)c1 1.78 µM [inhibitor, full curve, poor fit]
CCC1CCCCN1c1nc(-c2cccc(OC)c2O)nc2ccccc12 (stereo unspecified) 28.2 µM [inhibitor, single point]
O=C(NCCCCc1ccccc1)Nc1ccc(F)cc1 8.91 µM [inhibitor, partial curve, poor fit]
CSc1ccc(Cn2c(C)c(C(=O)NCc3ccc(C(C)C)cc3)sc2=O)cc1 10 µM [inhibitor, single point]
O=C(CC(c1ccccc1)c1ccccc1)NCCOCc1ccccc1 11.2 µM [inhibitor, single point]
COCCCNCCCCOc1cccc(Br)c1 28.2 µM [inhibitor, single point]
CC1CCCCN1CC(=O)NC(c1ccccc1)c1ccccc1 (stereo unspecified) 14.1 µM [inhibitor, single point]
CC(C)OC(=O)Cn1c(-c2ccccc2)c(-c2ccccc2)nnc1=O 28.2 µM [inhibitor, single point]
Cc1c(C)n(Cc2ccccc2)c2ccc(C(=O)OCCN(C)C)cc12 1.26 µM [inhibitor, full curve, poor fit]
Cc1ccc(NC(=O)C2CCN(S(=O)(=O)c3c(C)noc3/C=C/N(C)C)CC2)cc1 28.2 µM [inhibitor, single point]
CCOC(=O)N1CCC(NC(=O)c2ccc3c(c2)N(Cc2ccc(F)cc2)CCS3)CC1 11.2 µM [inhibitor, single point]
CC(=O)N1N=C(c2ccc(NS(=O)(=O)c3ccccc3)cc2)CC1c1ccco1 (stereo unspecified) 1.41 µM [inhibitor, full curve, poor fit]
Cc1ccc(C(=O)/C=C/C(=O)O)cc1 20 µM [inhibitor, single point]
Cc1ccc(S(=O)(=O)N2CCN(C(=O)COC(=O)COc3ccc(Cl)c(C)c3)CC2)c(C)c1 28.2 µM [inhibitor, single point]
CCOC(=O)CC(NC(=O)C(CC)c1ccccc1)c1ccccc1Cl (stereo unspecified) 12.6 µM [inhibitor, single point]
COc1ccc(N/C=C/C(=O)c2ccccc2)cc1 10 µM [inhibitor, partial curve, poor fit]
CC(C)CCN1CCN(CC(c2ccccc2)c2ccccc2)CC1CCO (stereo unspecified) 11.2 µM [inhibitor, partial curve, poor fit]
CCN(c1ccccc1)S(=O)(=O)c1ccc(Cl)c(C(=O)NC2CCN(Cc3ccccc3)CC2)c1 11.2 µM [inhibitor, partial curve, poor fit]
Cc1ccc(Cn2nc(C)c(NC(=O)CCCn3nc(C)c([N+](=O)[O-])c3C)c2C)cc1 22.4 µM [inhibitor, single point]
N#CCN1CCN(CCC(=O)Nc2ccc(OCc3ccccc3)cc2)CC1 22.4 µM [inhibitor, partial curve, poor fit]
O=C(NCCS(=O)(=O)N1CCN(c2ccc(F)cc2)CC1)c1cccc(C(F)(F)F)c1 14.1 µM [inhibitor, single point]
CC(C)Oc1cccc(C2CC(=O)Nc3cc4c(cc32)OCO4)c1 (stereo unspecified) 1 µM [inhibitor, full curve, poor fit]
O=C(CCn1cnnn1)Nc1cc(C(F)(F)F)cc(C(F)(F)F)c1 6.31 µM [inhibitor, partial curve, poor fit]
Cc1ccc(NS(=O)(=O)c2cc(NC(=O)c3cc4c(s3)CCCC4)ccc2C)c(C)c1 3.16 µM [inhibitor, full curve, poor fit]
CC(=O)c1ccc(Nc2ccc3cc(S(=O)(=O)N4CCCC4)ccc3n2)cc1 22.4 µM [inhibitor, single point]
O=C1c2cccc(NCCNCCO)c2C(=O)c2cccc(NCCNCCO)c21 5.62 µM [inhibitor, partial curve, poor fit]
CCOC(=O)C1=CN(Cc2cccc(F)c2)S(=O)(=O)N(CC)C1c1cccc(OC)c1 (stereo unspecified) 12.6 µM [inhibitor, single point]

Activity change, negative = inhibition, inactive:
O=C1N/C(=N\N=C\c2cccs2)SC1Cc1ccc(Cl)cc1 (stereo unspecified) 18%
CSc1ccc(CCNC(=O)C(C)n2nc(C)c3sc4ccccc4c3c2=O)cc1 (stereo unspecified) 2.33%
O=C(NCc1ccccc1Cl)c1ccc(Cn2c(SCc3ccccc3)nc3cccnc32)cc1 -14.1%
COc1ccc(NC(=O)CN2CCN(C(=O)c3ccco3)CC2)c(OC)c1 0.643%
CC(=O)Nc1c(F)cc(Br)cc1F -23.6%
c1ccc2c(c1)CC(N1CCCCC1)c1ccccc1S2 (stereo unspecified) -11%
O=[N+]([O-])c1ccc(CN2CC(N3CCC(c4ccccc4)CC3)CS2(=O)=O)cc1 (stereo unspecified) -15.4%
CCOc1ccccc1/C=N/Nc1nc(C)cc(=O)[nH]1 4.45%
CC(C)CCn1nnc2sc(-c3ccccc3)cc2c1=O 13%
